# The list shows a part of the results. Viral Rep nickase domains cut single-stranded DNA in vitro for 1 h at 37 °C with 3 µM enzyme; only the middle of the 90-letter strands is printed. The score is log2 (uncut reads / reads without enzyme); uncut sequences lie near 0, cut ones below; no hit call is given. Because reads are shares of a total, they shift together; where an enzyme cuts many sequences, the uncut ones exceed 0.
# System: T1, Rep nickase domain of tomato golden mosaic virus
# T1 sequence (residues 1-124, tag not shown): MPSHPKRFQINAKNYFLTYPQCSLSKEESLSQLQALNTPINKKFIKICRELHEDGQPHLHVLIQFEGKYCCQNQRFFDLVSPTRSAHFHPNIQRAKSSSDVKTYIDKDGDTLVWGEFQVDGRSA
# Experiment: uncleaved DNA left, log2 of reads against the no-enzyme library (log2 ratio); higher = less cleavage (more negative = more Rep cleavage of the k-mer); sequences stand for … in CTCGTCCG…ACCGGAGA
# Protocol: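 A pool of 90-nt single-stranded DNAs with seven random bases just before the constant AC of the nick site (name = the seven bases) was cut by 3 µM recombinant His6-SUMO-tagged Rep nickase domain (300 nM DNA, 50 mM HEPES pH 8.0, 50 mM NaCl, 1 mM MnCl2, 1 h, 37 °C, three replicates). Uncut DNA was amplified and sequenced.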
row,Sequence,uncleaved DNA left (log2)
1,GCGATTC,-0.204
2,GGTTTTT,0.0354
3,GAACATT,-0.174
4,TTGGTGG,0.148
5,AGGCAAA,0.0775
6,GAGCTGA,0.183
7,CCTGCTC,-0.00931
8,GGCAGGG,0.0525
9,CAAAAGG,0.0775
10,TCCCCGT,-0.178
11,CCCTTAT,0.092
12,ACAGTGT,-0.0447
13,CAGCCGT,-0.121
14,TGCACGC,-0.216
15,CTCATAA,0.106
16,GACCTAC,0.134
17,ACATACT,-0.0575
18,AGGAACA,-0.00353
19,CCCGCGG,0.133
20,TTATTAG,0.0041

row,Sequence,uncleaved DNA left (log2)
1,GACAAGA,-0.00855
2,CAGCCTA,0.0215
3,AGTACAA,0.00177
4,CGAAAGT,-0.004
5,TCTAAGT,0.0204
6,TGGGGAC,0.236
7,CCATGAC,0.162
8,AATATTA,-0.115
9,TGGAGAC,0.0634
10,ACCCATT,-0.163
11,TTTGTCA,-0.0452
12,ACTAAGA,0.0423
13,CCCATAC,0.113
14,GCGTTAG,0.1
15,TCTCGTA,-0.0173
16,ATCGAGA,0.144
17,AAGGGCG,-0.032
18,ACGCTCT,-0.0116
19,GGCGCAA,0.0678
20,CGCCCGC,-0.0546

# Reference: the supplement of paper PMC7826260
